# In patent publication EP3498273A1, “PHARMACEUTICAL COMPOSITION FOR MODULATING THE RESPONSE OF A GABA-A RECEPTOR” (Universität Wien, priority 2017, dated 2019):
# Target: T1, GABAA receptors composed of α1β3γ2S subunits (Homo sapiens, UniProt P14867+P28472)
# Test: cell-based
# Conditions: not given
row,Compound,EC50 [µM]
1,"C/C(=C/C#N)c1ccc(Cl)cc1Cl [Compound Z-2, (2Z)-3-(2,4-dichlorophenyl)but-2-enenitrile]",12.8 ± 1.7

# Same assay, conditions: read-out: IGABA pot; % α1β3γ2s (100µM)
row,Compound,activation at 100 µM [%]
1,"C/C(=C/C(N)=O)c1ccc(Cl)cc1Cl [Compound Z-11, (2Z)-3-(2,4-dichlorophenyl)-2-butenamide]",397 ± 10
2,"Cc1ccc(CC(C)C#N)c(Cl)c1 (stereo not drawn) [Compound 8, 3-(2-chloro-4-methylphenyl)-2-methylpropanenitrile]",931 ± 54
3,"Cc1ccc(OC(C)C#N)c(C)c1 (racemic) [Compound 14, 2-(2,4-dimethylphenoxy)propanenitrile]",238 ± 35
4,"C/C(C#N)=C/c1ccc(C)cc1Cl [Compound Z-6, (2Z)-3-(2-chloro-4-methylphenyl)-2-methylacrylonitrile]",256 ± 45
5,"CC(C#N)=Cc1ccc(C)cc1Cl (mixture of isomers) [6 (E/Z mixture), 3-(2-chloro-4-methylphenyl)-2-methylacrylonitrile]",788 ± 67
6,"C/C(=C\C(N)=O)c1ccc(Cl)cc1Cl [Compound E-11, (2E)-3-(2,4-dichlorophenyl)-2-butenamide]",603 ± 39
7,"Cc1ccc(OC(C)C#N)c(Cl)c1 (racemic) [Compound 13, 2-(2-chloro-4-methylphenoxy)propanenitrile]",516 ± 58
8,"C/C(C#N)=C/c1ccc(Cl)cc1Cl [Compound Z-7, (2Z)-3-(2,4-dichlorophenyl)-2-methylacrylonitrile]",199 ± 92
9,"Cc1ccc(C(C)CC#N)c(Cl)c1 (stereo not drawn) [Compound 10, 3-(2-chloro-4-methylphenyl)butanenitrile]",545 ± 57
10,"CC(=Cc1cc(C)cc(C)c1)c1nnn[nH]1 (mixture of isomers) [16 (E/Z mixture), 5-(1-(3,5-dimethylphenyl)prop-1-en-2-yl)-1H tetrazole]",138 ± 6

# Target: T1, GABAA receptors composed of α1β3γ2S subunits
# Test: not given
# Conditions: maximal IGABA enhancement, GABA EC3-7
row,Compound,Emax [%]
1,"C/C(=C/C#N)c1ccc(Cl)cc1Cl [Compound Z-2, (2Z)-3-(2,4-dichlorophenyl)but-2-enenitrile]",1896.4 ± 114.3
